# About 2,200 (0.71%) of roughly 310,000 compounds showed an effect of 50% or more. The effect is printed as a negative number. Some of the results follow.
# Biological target: human ether-à-go-go-related gene (hERG) potassium channel (human, UniProt Q12809)
# Experiment: primary screen, population patch clamp on CHO cells stably expressing hERG
# Chain of human ether-à-go-go-related gene (hERG) potassium channel (Q12809 whole entry, looked up): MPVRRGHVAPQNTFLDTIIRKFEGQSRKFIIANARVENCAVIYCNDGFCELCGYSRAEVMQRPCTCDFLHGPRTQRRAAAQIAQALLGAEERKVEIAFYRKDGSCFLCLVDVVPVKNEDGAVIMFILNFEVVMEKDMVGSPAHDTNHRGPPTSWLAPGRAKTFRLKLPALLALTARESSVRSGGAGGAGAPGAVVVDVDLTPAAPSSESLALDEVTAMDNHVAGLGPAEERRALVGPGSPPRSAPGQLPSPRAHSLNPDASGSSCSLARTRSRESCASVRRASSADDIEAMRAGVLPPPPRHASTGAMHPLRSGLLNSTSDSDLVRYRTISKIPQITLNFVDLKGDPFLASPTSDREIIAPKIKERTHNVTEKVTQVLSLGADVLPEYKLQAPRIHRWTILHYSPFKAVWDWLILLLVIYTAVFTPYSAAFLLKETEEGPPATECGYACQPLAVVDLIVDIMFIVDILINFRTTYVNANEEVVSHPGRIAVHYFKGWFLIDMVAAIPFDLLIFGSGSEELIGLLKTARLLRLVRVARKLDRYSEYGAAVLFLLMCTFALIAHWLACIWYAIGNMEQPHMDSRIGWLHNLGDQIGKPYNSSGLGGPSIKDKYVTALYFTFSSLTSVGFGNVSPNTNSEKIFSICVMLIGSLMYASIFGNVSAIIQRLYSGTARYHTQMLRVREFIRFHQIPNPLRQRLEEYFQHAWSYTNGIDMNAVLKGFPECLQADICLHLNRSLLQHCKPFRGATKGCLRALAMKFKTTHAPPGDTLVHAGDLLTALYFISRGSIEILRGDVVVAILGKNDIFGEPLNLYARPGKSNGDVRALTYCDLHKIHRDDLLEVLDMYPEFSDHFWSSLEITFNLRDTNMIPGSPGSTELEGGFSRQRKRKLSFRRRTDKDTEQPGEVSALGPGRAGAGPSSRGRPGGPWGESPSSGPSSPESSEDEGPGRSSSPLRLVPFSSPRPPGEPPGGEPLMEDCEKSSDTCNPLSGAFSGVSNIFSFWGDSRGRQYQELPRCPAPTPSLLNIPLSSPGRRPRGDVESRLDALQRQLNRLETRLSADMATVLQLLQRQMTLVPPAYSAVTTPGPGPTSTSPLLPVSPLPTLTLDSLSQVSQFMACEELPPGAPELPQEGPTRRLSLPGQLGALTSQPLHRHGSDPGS
row,SMILES,"hERG current change (%, negative = inhibition) at 1uM [%]"
1,COc1ccccc1NC(=O)c1ccccc1C(=O)Nc1ccccc1OC,7.94
2,O=C(CSc1nc2c(c(=O)[nH]1)CCC2)Nc1cccc(F)c1,6.99
3,O=C(NCC1CC1)c1onc(CSc2ccncc2)c1C(=O)NCC1CC1,6.62
4,O=C(C1CCCN1S(=O)(=O)c1cccc2cccnc12)N1CCc2ccccc21 (stereo not drawn),4.29
5,Cc1ccc(NC(=O)OC(C)CNC(=O)Oc2cccc(C)c2)cc1 (stereo not drawn),13.2
6,C/C(=N\NC(=O)c1nnn(-c2nonc2N)c1-c1ccc2c(c1)OCO2)c1ccccc1,-0.752
7,CCOC(=O)c1cc(NC(=O)C2C3C=CC(O3)C2C(=O)O)cc(C(=O)OCC)c1 (stereo not drawn),4.41
8,COc1ccc(/C=N/n2c(-c3n[nH]c4c3CCC4)n[nH]c2=S)cc1OC,18.8
9,Cc1cc(C)n(C(C)n2nc(C)cc2C)n1,13.7
10,Cc1ccc(/C=N/NC(=O)C2(C)CC2(Br)Br)cc1 (stereo not drawn),9.02
11,Cc1cccc(NC(=O)C2CCN(C(=O)c3ccccc3C)CC2)n1,-1.28
12,Cc1cc(C(=O)COC(=O)CC2Sc3ccccc3NC2=O)c(C)n1-c1ccc2c(c1)OCO2 (stereo not drawn),6.53
13,CC(=O)Oc1ccc(NC(=O)Cc2ccccc2)c(C(=O)O)c1,5.02
14,CC(=O)N/N=C(\C)CC(=O)Nc1cccc(C(F)(F)F)c1,4.9
15,COc1ccc(-c2cc(C3CCN(c4cc(Cl)nc(N)n4)CC3)[nH]n2)cc1,7.21
16,O=C(NCCCn1ccnc1)c1ccc(Cl)cc1[N+](=O)[O-],0.784
17,O=C(Nc1nc(-c2cccc3ccccc23)cs1)c1cnccn1,15.5
18,CC1CCCC(NC(=O)CSc2nccn2C)C1C.Cl (stereo not drawn),8.44
19,Cc1ccc(NC(=O)C2CC(=O)N(c3ccc4c(c3)OCCO4)C2)cc1S(=O)(=O)N1CCCCCC1 (stereo not drawn),6.92
20,CCc1ccc(N2CC(C(=O)OC)CC2=O)cc1 (stereo not drawn),9.09
21,COc1ccc(C(=O)NC(CO)c2nnc(SCc3ccc(Cl)c(Cl)c3)n2C)cc1 (stereo not drawn),4.53
22,CN1C(=O)/C(=C/c2ccc(OCc3ccc(F)cc3)cc2)N(C)C1=S,11.7
23,COc1cccc(/C=N/Nc2nc3ccccc3n3cnnc23)c1,12.9

row,SMILES,"hERG current change (%, negative = inhibition) at 1uM [%]"
1,CC1=CCC2C(=O)N(Cc3ccccc3)C(=O)C2C1 (stereo not drawn),9.01
2,Cc1nn(C(C)(C)C)c(OC(=O)c2ccco2)c1Sc1ccccc1,11.8
3,Oc1[nH]c2ccc(Br)cc2c1N=NC(=S)NCC1CCCO1 (stereo not drawn),7.17
4,O=C(CNC(=O)c1ccccc1Cl)OC1CCOC1=O (stereo not drawn),13.5
5,Cc1cc(-c2ccccc2)nc2cc(C(N)=O)nn12,13.6
6,COc1ccc(CN2CCN(Cc3ccccc3F)CC2)cc1OC.O=C(O)C(=O)O,5.6
7,Cc1csc(C)[n+]1CC(=O)c1ccccc1.[Br-],19.3
8,CC1(C)Cc2c(c(-c3ccco3)[nH]c(=O)c2C#N)CO1,16.9
9,O=[N+]([O-])c1ccc(N=NNc2ccccc2)cc1,11.3
10,CN(CC(=O)Nc1ccc(S(N)(=O)=O)cc1)c1ccccc1,6.04
11,Cc1nc(N)c(Br)c(C)c1Br,4.32
12,CCOc1ccc(C(C)NC(=S)NCc2ccc(Cl)cc2)cc1 (stereo not drawn),3.49
13,O=C(CSc1cn(CCNC(=O)c2ccc3ccccc3c2)c2ccccc12)NCc1ccco1,2.41
14,O=c1cc2c(nn1Cc1ccc(F)cc1)-c1ccccc1CC2,-11.4
15,CC(=O)N1CCc2cc(S(=O)(=O)CCC(=O)O)ccc21,7.93
16,O=S1(=O)N=C(N(Cc2cccs2)c2ccc(O)cc2)c2ccccc21,-4.3
17,CCOC(=O)C1CCCN(CCC(=O)Nc2cccc(Cl)c2C)C1.Cl (stereo not drawn),2.48
18,CC(C)(C)CC(C)(C)NCC(O)COCCOc1ccc(Br)cc1.Cl (stereo not drawn),1.84
19,CCCC(c1nnnn1C(C)(C)C)N1CCN(Cc2ccccc2)CC1.Cl (stereo not drawn),-5.03
20,CCOC(=O)CC(NC(=O)Cn1nnc(-c2ccccc2Cl)n1)c1ccc(OC)cc1 (stereo not drawn),12.1
21,COc1ccccc1Nc1nc(N)nc(CSc2nccc(C)n2)n1,13.4
22,C(#Cc1ccccc1)CN1CCOCC1.Cl,12.8
23,CC1CCCN(C(=O)Cn2nnc(-c3ccc(N(C)C)cc3)n2)C1 (stereo not drawn),13.7

row,SMILES,"hERG current change (%, negative = inhibition) at 1uM [%]"
1,COc1ccc(/C=C/C(=O)OCC(=O)c2ccc3c(c2)NC(=O)CO3)cc1,14.3
2,O=C(CSCCc1ccccn1)Nc1ccc(Br)cn1,-8.45
3,O=C(C1CCCN(S(=O)(=O)c2cnc[nH]2)C1)N(CCc1ccccc1)Cc1ccccc1 (stereo not drawn),-1.14
4,CCOc1cc(CNCCc2c[nH]c3ccccc23)cc(Cl)c1OCC(N)=O.Cl,-16.1
5,CC1(C)CC(=O)c2cc(OCC(=O)NCc3cccnc3)ccc2O1,-5.3
6,Cc1cc(C)cc(Oc2ccccc2/C=C\C(=O)O)c1,12.3
7,O=C1C(=O)N(CCN2CCOCC2)C(c2cccc(Cl)c2)/C1=C(/O)c1ccc2c(c1)OCO2 (stereo not drawn),16.3
8,CCCNC(=O)NC(=O)COc1ccc(-c2ccc(C#N)cc2)cc1,10.1
9,CO.COC(=O)/C=C/c1c(C)[nH]c(=O)[nH]c1=O,13.1
10,O=C(CN1C(=O)NC2(CCCC2)C1=O)OCCOc1ccccc1,7.12
11,CC1CN(S(=O)(=O)c2ccccc2)CN1C(=O)N1CCOCC1 (stereo not drawn),15.7
12,COC(=O)c1ccc(-c2nn(C)c(=O)c3ccccc23)cc1,5.21
13,COc1cccc(CNC(=O)C2CCCN(c3ncnc4c3nc3n4CCCCC3)C2)c1 (stereo not drawn),-9.22
14,O=C(NCc1ccccc1)C1(C(F)(F)F)C/C(=C\CCO)CCCO1 (stereo not drawn),14.1
15,O=C(Nc1nc(-c2ccccc2)cs1)C1CCCN(S(=O)(=O)c2cccc([N+](=O)[O-])c2)C1 (stereo not drawn),16.1
16,CC(C(=O)Nc1cccnc1)N1C(=O)C2C3C=CC(C3)C2C1=O (stereo not drawn),3.66
17,O=C(c1cccc(Br)c1)N1CCCc2ccccc21,12.4
18,CCN(C(=O)c1cc2cc(OC)ccc2oc1=O)c1cccc(C)c1,17
19,Cc1ccc(-c2nn(-c3ccccc3)cc2NC(=O)CCl)cc1,1.1
20,COc1ccc2cc(Br)ccc2c1CC(=O)NC(C)(C)C,10.2
21,CC1(C)CC(=O)C(C(C2=C(O)CC(C)(C)CC2=O)c2cccc(O)c2)C(=O)C1 (stereo not drawn),-3
22,Cc1ccccc1-c1nnn(CC(=O)NCc2ccc3c(c2)OCO3)n1,18.7
23,O=C(O)c1cc(C(F)(F)F)nc2ccccc12,10.5

row,SMILES,"hERG current change (%, negative = inhibition) at 1uM [%]"
1,CC1CN(S(=O)(=O)c2ccc(Cl)c(S(=O)(=O)N3CC(C)OC(C)C3)c2)CC(C)O1 (stereo not drawn),9.12
2,O=c1c(-c2ccc3c(c2)OCCO3)c(C(F)(F)F)oc2cc(O)cc(O)c12,-1.15
3,O=C(CN1C(=O)COc2ccccc21)Nc1ccc2c(c1)OCCO2,6.01
4,O=C(O)C1C2CCC(C2)C1C(=O)NCCc1ccc(F)cc1 (stereo not drawn),24.5
5,Cc1ccc(OC(=O)c2ccc3snnc3c2)cc1,9.79
6,CC(=O)Nc1ccc(CNc2ncnc3ccc(-c4c(C)noc4C)cc23)cc1,11.5
7,Cc1ccnc(NC(=O)CCc2c[nH]c3ccccc23)c1,7.34
8,Cc1oc2ccccc2c1-c1cn2c(n1)SCC2,6.14
9,CCN(Cc1ccccc1)C(c1ccc(C)cc1)c1nnnn1C(C)(C)C (stereo not drawn),8.35
10,O=C(NCCCN1CCCC1=O)C(=O)Nc1cccc(F)c1,-7.77
11,COc1cc(C)cc2oc(=O)c(CC(=O)N3C[C@H]4C[C@@H](C3)c3cccc(=O)n3C4)c(C)c12,10.8
12,Cc1ccc(CNC(=O)C2CCCN(S(=O)(=O)c3c(C)noc3C)C2)cc1 (stereo not drawn),7.69
13,COc1nc(Oc2ccc(C(=O)O)cc2)nc(Oc2ccc(C(=O)O)cc2)n1,6.33
14,Cc1nn(-c2ncc(C(F)(F)F)cc2Cl)c(=O)n1-c1cccc(Cl)c1,20.3
15,CCN(CC)CCCn1c2c(c(SCC(=O)Nc3ccc4c(c3)OCO4)nc1=O)CCC2,3.69
16,CCN(Cc1ccccc1)c1ccc(/C=N/NC(=S)NC(C)C)cc1,6.96
17,O=C(NCc1ccccc1)c1ccc(NC(=O)c2ccco2)cc1,5.4
18,COc1ccc(C2=Nc3ccccc3OC2)cc1,3.04
19,COc1ccc(-c2cnc(SCC(=O)Nc3nc(C(C)(C)C)cs3)n2Cc2ccco2)cc1,9.81
20,Cc1ccc(S(=O)(=O)NCCC(=O)NCCCSc2ccccc2)cc1,6.16
21,O=C(N/N=C/c1cccn1-c1ccc(O)cc1)c1cccc2ccccc12,-6.71

# Source: article PMC4336329 (PLoS ONE, 2015)
